# Reference: the supplement of paper PMC8728848
# This is one part of the list.
# B1: Als1 (Candida albicans), P46590 (protein)
# chain: KTITGVFDSFNSLTWSNAANYAFKGPGYPTWNAVLGWSLDGTSANPGDTFTLNMPCVFKYTTSQTSVDLTADGVKYATCQFYSGEEFTTFSTLTCTVNDALKSSIKAFGTVTLPIAFNVGGTGSSTDLEDSKCFTAGTNTVTFNDGDKDISIDVEFEKSTVDPSGYLYASRVMPSLNKVTTLFVAPQCENGYTSGTMGFSSSNGDVAIDCSNIHIGITKGLNDWNYPVSSESFSYTKTCTSNGIQIKYQNVPAGYRPFIDAYISATDVNQYTLAYTNDYTCAGSRLQSKPFTLRWTGYKNSDAGSNGIVIVATTRTVTDSTTAVTTLPFNPSVDKTKTIEILQPIPTTTITTSYVGVTTSYLTKTAPIGETATVIVDVPYHTTTTVTSEWTGTITTTTTRTNPTDSIDTVVVQVP
# Columns and labels:
# Assay in all cases: glycan array binding signal (z-score within array); higher = stronger binding
# Details in all cases: glycan notation: IUPAC condensed, linker removed
# Gal(b1-3)GalNAc(b1-3)Gal = biological target: Gal(b1-3)GalNAc(b1-3)Gal
# In short: (§1)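 Arrays were curated from the Consortium for Functional Glycomics database, 3228 in total, and kept only where the protein sequence was available. Binding is expressed as a within-array Z-score. This score was averaged across arrays of the same protein sequence at different concentrations or buffers and across linkers, and negative values can be read as non-binding.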
# [1] = biological target: Gal(b1-3)GalNAc(b1-3)Gal(a1-4)Gal(b1-4)Glc
# In short: as §1
# [2] = biological target: Gal(b1-3)GalNAc(b1-4)Gal(b1-4)Glc
# In short: as §1
# [3] = biological target: Gal(b1-3)GalNAc(b1-4)[Neu5Ac(a2-3)]Gal(b1-4)Glc
# In short: as §1
# Gal(b1-3)GlcNAc = biological target: Gal(b1-3)GlcNAc
# In short: as §1
# [4] = biological target: Gal(b1-3)GlcNAc(a1-3)Gal(b1-4)GlcNAc
# In short: as §1
# [5] = biological target: Gal(b1-3)GlcNAc(a1-6)Gal(b1-4)GlcNAc
# In short: as §1
# Gal(b1-3)GlcNAc(b1-2)Man = biological target: Gal(b1-3)GlcNAc(b1-2)Man
# In short: as §1
# [6] = biological target: Gal(b1-3)GlcNAc(b1-2)Man(a1-3)[Gal(b1-3)GlcNAc(b1-2)Man(a1-6)]Man(b1-4)GlcNAc(b1-4)GlcNAc
# In short: as §1
# [7] = biological target: Gal(b1-3)GlcNAc(b1-2)Man(a1-3)[Gal(b1-3)GlcNAc(b1-2)Man(a1-6)]Man(b1-4)GlcNAc(b1-4)[Fuc(a1-6)]GlcNAc
# In short: as §1
# [8] = biological target: Gal(b1-3)GlcNAc(b1-2)Man(a1-3)[GlcNAc(b1-4)][Gal(b1-3)GlcNAc(b1-2)Man(a1-6)]Man(b1-4)GlcNAc(b1-4)GlcNAc
# In short: as §1
# [9] = biological target: Gal(b1-3)GlcNAc(b1-2)[Gal(b1-3)GlcNAc(b1-6)]Man(a1-6)[Gal(b1-3)GlcNAc(b1-2)Man(a1-3)]Man(b1-4)GlcNAc(b1-4)GlcNAc
# In short: as §1
# [10] = biological target: Gal(b1-3)GlcNAc(b1-3)Gal(b1-3)GlcNAc
# In short: as §1
# [11] = biological target: Gal(b1-3)GlcNAc(b1-3)Gal(b1-4)Glc
# In short: as §1
# [12] = biological target: Gal(b1-3)GlcNAc(b1-3)Gal(b1-4)GlcNAc
# In short: as §1
# [13] = biological target: Gal(b1-3)GlcNAc(b1-3)Gal(b1-4)GlcNAc(b1-2)Man(a1-3)[Gal(b1-3)GlcNAc(b1-3)Gal(b1-4)GlcNAc(b1-2)Man(a1-6)]Man(b1-4)GlcNAc(b1-4)GlcNAc
# In short: as §1
# [14] = biological target: Gal(b1-3)GlcNAc(b1-3)Gal(b1-4)GlcNAc(b1-2)[Gal(b1-3)GlcNAc(b1-3)Gal(b1-4)GlcNAc(b1-6)]Man(a1-6)[Gal(b1-3)GlcNAc(b1-3)Gal(b1-4)GlcNAc(b1-2)Man(a1-3)]Man(b1-4)GlcNAc(b1-4)[Fuc(a1-6)]GlcNAc
# In short: as §1
# [15] = biological target: Gal(b1-3)GlcNAc(b1-3)Gal(b1-4)GlcNAc(b1-3)Gal(b1-4)GlcNAc(b1-2)[Gal(b1-3)GlcNAc(b1-3)Gal(b1-4)GlcNAc(b1-3)Gal(b1-4)GlcNAc(b1-6)]Man(a1-6)[Gal(b1-3)GlcNAc(b1-3)Gal(b1-4)GlcNAc(b1-3)Gal(b1-4)GlcNAc(b1-2)Man(a1-3)]Man(b1-4)GlcNAc(b1-4)[Fuc(a1-6)]GlcNAc
# In short: as §1
# [16] = biological target: Gal(b1-3)GlcNAc(b1-3)Gal(b1-4)GlcNAc(b1-6)[Gal(b1-3)GlcNAc(b1-3)]Gal(b1-4)Glc
# In short: as §1
# [17] = biological target: Gal(b1-3)GlcNAc(b1-3)Gal(b1-4)[Fuc(a1-3)]GlcNAc
# In short: as §1
# [18] = biological target: Gal(b1-3)GlcNAc(b1-3)Gal(b1-4)[Fuc(a1-3)]GlcNAc(b1-6)[Gal(b1-3)GlcNAc(b1-3)]Gal(b1-4)Glc
# In short: as §1
# [19] = biological target: Gal(b1-3)GlcNAc(b1-3)GalNAc
# In short: as §1
# [20] = biological target: Gal(b1-3)GlcNAc(b1-6)Gal(b1-4)GlcNAc
# In short: as §1
# [21] = biological target: Gal(b1-3)GlcNAc(b1-6)GalNAc
# In short: as §1
# [22] = biological target: Gal(b1-3)GlcNAc(b1-6)[Gal(b1-3)]GalNAc
# In short: as §1
# Gal(b1-3)GlcNAc6S = biological target: Gal(b1-3)GlcNAc6S
# In short: as §1
# [23] = biological target: Gal(b1-3)[Fuc(a1-4)]GlcNAc
# In short: as §1
# [24] = biological target: Gal(b1-3)[Fuc(a1-4)]GlcNAc(b1-2)Man
# In short: as §1
# [25] = biological target: Gal(b1-3)[Fuc(a1-4)]GlcNAc(b1-2)Man(a1-3)[Gal(b1-3)[Fuc(a1-4)]GlcNAc(b1-2)Man(a1-6)]Man(b1-4)GlcNAc(b1-4)[Fuc(a1-6)]GlcNAc
# In short: as §1
# [26] = biological target: Gal(b1-3)[Fuc(a1-4)]GlcNAc(b1-3)Gal(b1-3)[Fuc(a1-4)]GlcNAc
# In short: as §1
# [27] = biological target: Gal(b1-3)[Fuc(a1-4)]GlcNAc(b1-3)Gal(b1-4)[Fuc(a1-3)]GlcNAc
# In short: as §1
# [28] = biological target: Gal(b1-3)[Fuc(a1-4)]GlcNAc(b1-6)GalNAc
# In short: as §1
# [29] = biological target: Gal(b1-3)[GlcNAc(b1-6)]GalNAc
# In short: as §1
# [30] = biological target: Gal(b1-3)[Neu5Ac(a2-6)]GalNAc
# In short: as §1
# [31] = biological target: Gal(b1-3)[Neu5Ac(a2-6)]GlcNAc(b1-4)Gal(b1-4)Glc
# In short: as §1
# [32] = biological target: Gal(b1-3)[Neu5Ac(b2-6)]GalNAc
# In short: as §1
# Gal(b1-4)Gal = biological target: Gal(b1-4)Gal
# In short: as §1
# [33] = biological target: Gal(b1-4)GalNAc(a1-3)[Fuc(a1-2)]Gal(b1-4)GlcNAc
# In short: as §1
binder,measurement,setting,value
B1,glycan array binding signal (z-score),Gal(b1-3)GalNAc(b1-3)Gal,-0.585
same,glycan array binding signal (z-score),[1],-0.424
same,glycan array binding signal (z-score),[2],-0.41
same,glycan array binding signal (z-score),[3],-0.618
same,glycan array binding signal (z-score),Gal(b1-3)GlcNAc,-0.525
same,glycan array binding signal (z-score),[4],-0.432
same,glycan array binding signal (z-score),[5],-0.456
same,glycan array binding signal (z-score),Gal(b1-3)GlcNAc(b1-2)Man,0.092
same,glycan array binding signal (z-score),[6],-0.233
same,glycan array binding signal (z-score),[7],-0.671
same,glycan array binding signal (z-score),[8],-0.487
same,glycan array binding signal (z-score),[9],-0.432
same,glycan array binding signal (z-score),[10],0.919
same,glycan array binding signal (z-score),[11],-0.736
same,glycan array binding signal (z-score),[12],-0.399
same,glycan array binding signal (z-score),[13],1.32
same,glycan array binding signal (z-score),[14],0.97
same,glycan array binding signal (z-score),[15],0.306
same,glycan array binding signal (z-score),[16],-0.582
same,glycan array binding signal (z-score),[17],-0.629
same,glycan array binding signal (z-score),[18],-0.704
same,glycan array binding signal (z-score),[19],-0.05
same,glycan array binding signal (z-score),[20],-0.706
same,glycan array binding signal (z-score),[21],-0.121
same,glycan array binding signal (z-score),[22],-0.388
same,glycan array binding signal (z-score),Gal(b1-3)GlcNAc6S,-0.289
same,glycan array binding signal (z-score),[23],0.004
same,glycan array binding signal (z-score),[24],1.41
same,glycan array binding signal (z-score),[25],-0.166
same,glycan array binding signal (z-score),[26],-0.346
same,glycan array binding signal (z-score),[27],-0.6
same,glycan array binding signal (z-score),[28],0.658
same,glycan array binding signal (z-score),[29],-0.538
same,glycan array binding signal (z-score),[30],-0.168
same,glycan array binding signal (z-score),[31],-0.417
same,glycan array binding signal (z-score),[32],-0.157
same,glycan array binding signal (z-score),Gal(b1-4)Gal,-0.695
same,glycan array binding signal (z-score),[33],-0.451
